Here are results for 35 molecules from the supplement of paper PMC8821664.

Counter-ions that a name gives are not always drawn. Some of the results follow. Single values are uncertain, as repeats are few or missing.
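Also: monoclonal Beas-2B line stably carrying CMV promoter-driven AQP5-HiBiT, 5,000 cells per well in 384-well plates, lytic HiBiT plus LgBiT NanoLuc luminescence, FDA-approved drug library screen.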

This assay relates to Beas-2B AQP5-HiBiT reporter cells. Nature of the assay: AQP5-HiBiT luminescence relative to vehicle (ratio to vehicle); higher = higher AQP5-HiBiT protein abundance. The note with it: 10 µM; 18 h. A general note: The HiBiT peptide binds its large partner to form an active luciferase.
Regarding `CC[C@@H]1C(=O)OC[C@@H]1Cc1cncn1C` [(+)-Pilocarpine hydrochloride], the AQP5-HiBiT luminescence amounted to 0.838.
With `CC(=O)CCCCn1c(=O)c2c(ncn2C)n(C)c1=O` [Pentoxifylline], the AQP5-HiBiT luminescence was found to be 1.02.
Turning to `CNCC[C@@H](Oc1ccccc1C)c1ccccc1` [Atomoxetine hydrochloride], the AQP5-HiBiT luminescence came out at 0.756.
On to `CNCCC(Oc1ccc(C(F)(F)F)cc1)c1ccccc1` (stereo not given) [Fluoxetine hydrochloride], for which the AQP5-HiBiT luminescence was determined as 0.996.
With `C[C@]12CC[C@@H]3c4ccc(O)cc4C[C@@H](CCCCCCCCC[S+]([O-])CCCC(F)(F)C(F)(F)F)[C@H]3[C@@H]1CC[C@@H]2O` (stereo not given in full) [Fulvestrant], the AQP5-HiBiT luminescence was found to be 1.51.
Regarding `Cn1c(=O)c2c(ncn2CC(O)CO)n(C)c1=O` (stereo not given) [Diprophylline], the AQP5-HiBiT luminescence was found to be 0.953.
As for `COc1ccc2c(c1)c(CC(=O)O)c(C)n2C(=O)c1ccc(Cl)cc1` [Indometacin], the AQP5-HiBiT luminescence was determined as 0.687.
On to `O=C1OC2(c3ccc(O)cc3Oc3cc(O)ccc32)c2ccccc21` [Fluorescein], for which the AQP5-HiBiT luminescence came to 1.11.
Consider `Cc1cc(/C=C/C#N)cc(C)c1Nc1ccnc(Nc2ccc(C#N)cc2)n1` [Rilpivirine], for which the AQP5-HiBiT luminescence was 0.678.
For the molecule `CCC(C)(C)C(=O)O[C@H]1C[C@@H](C)C=C2C=C[C@H](C)[C@H](CC[C@@H]3C[C@@H](O)CC(=O)O3)[C@H]21` [Simvastatin], the AQP5-HiBiT luminescence stood at 1.11.
In the case of `Nc1cccc2c1CN(C1CCC(=O)NC1=O)C2=O` (stereo not given) [Lenalidomide (CC-5013)] it was 1.17; in that of `CC(=O)NC[C@H]1CN(c2ccc(N3CCOCC3)c(F)c2)C(=O)O1` [Linezolid], 0.754.
For the molecule `N#CC[C@H](C1CCCC1)n1cc(-c2ncnc3[nH]ccc23)cn1`, the AQP5-HiBiT luminescence came to 0.286.
The result for `Cc1ccnc(NS(=O)(=O)c2ccc(N)cc2)n1` [Sulfamerazine] reads 1.09.
On to `CC1(C)O[C@@H]2[C@@H](CO[C@@]3(COS(N)(=O)=O)OC(C)(C)O[C@@H]23)O1` [Topiramate], for which the AQP5-HiBiT luminescence turned out to be 0.594.
The result for `CNC(=O)c1ccc(N2C(=S)N(c3ccc(C#N)c(C(F)(F)F)c3)C(=O)C2(C)C)cc1F` [Enzalutamide (MDV3100)] reads 0.815; that for `O=C(O)c1cn(C2CC2)c2cc(N3CCNCC3)c(F)cc2c1=O` [Ciprofloxacin hydrochloride], 1.12.
In the case of `CO[C@H]1/C=C/O[C@@]2(C)Oc3c(C)c(O)c4c(c3C2=O)C2=NC3(CCN(CC(C)C)CC3)NC2=C(NC(=O)/C(C)=C\C=C\[C@H](C)[C@H](O)[C@@H](C)[C@@H](O)[C@@H](C)[C@H](OC(C)=O)[C@@H]1C)C4=O` [Rifabutin] it was 1.22; in that of `CN1C(=O)OC(C)(C)C1=O` [Trimethadione], 0.581; in that of `CC1(C)S[C@@H]2[C@H](NC(=O)[C@H](C(=O)O)c3ccsc3)C(=O)N2[C@H]1C(=O)O` [Ticarcillin disodium], 1.25.
In the case of `COc1ccc(C(=O)CC(=O)c2ccc(C(C)(C)C)cc2)cc1` [Avobenzone], the AQP5-HiBiT luminescence was found to be 0.764.
Consider `CC(=O)c1ccc(S(=O)(=O)NC(=O)NC2CCCCC2)cc1` [Acetohexamide], for which the AQP5-HiBiT luminescence was determined as 0.835.
Regarding `CCCC(=O)Nc1ccc(OCC(O)CNC(C)C)c(C(C)=O)c1` (stereo not given) [Acebutolol hydrochloride], the AQP5-HiBiT luminescence came out at 0.678.
For the molecule `C[N+](C)(C)CCOC(N)=O` [Carbachol], the AQP5-HiBiT luminescence stood at 0.831.
The result for `CC(=O)Nc1c(I)c(NC(C)=O)c(I)c(C(=O)O)c1I` [Diatrizoate sodium] reads 1.29; that for `CNC1(C)C2CCC(C2)C1(C)C` (stereo not given) [Mecamylamine hydrochloride], 0.916; that for `Nc1ccc(S(=O)(=O)NC(=O)c2ccccc2)cc1` [Sulfabenzamide], 1.03.
`COc1ccccc1OCC(O)CO` (stereo not given) [Guaifenesin]: the AQP5-HiBiT luminescence amounted to 0.723.
For `COc1cnc(NS(=O)(=O)c2ccc(N)cc2)nc1` [Sulfameter], the AQP5-HiBiT luminescence was determined as 0.834.
As for `CC(=O)OC[C@H]1O[C@@H]([S-])[C@H](OC(C)=O)[C@@H](OC(C)=O)[C@@H]1OC(C)=O.CCP(CC)CC.[Au+]` [Auranofin], the AQP5-HiBiT luminescence came out at 0.271.
Regarding `Cc1cccc(Nc2ccncc2S(=O)(=O)NC(=O)NC(C)C)c1` [Torasemide], the AQP5-HiBiT luminescence is 0.831.
Consider `CN(C)CCOC(c1ccccc1)c1ccccc1` [Diphenhydramine hydrochloride], for which the AQP5-HiBiT luminescence was found to be 0.854.
For `Nc1ccc(S(=O)(=O)Nc2nccs2)cc1` [Sulfathiazole], the AQP5-HiBiT luminescence was 0.737.
Turning to `O=C(O)Cc1ccccc1Nc1c(Cl)cccc1Cl` [Diclofenac sodium], the AQP5-HiBiT luminescence came to 0.869.
The result for `C[C@@H]1C/C=C/C=C/C=C/C=C/[C@H](O[C@@H]2O[C@H](C)[C@@H](O)[C@H](N)[C@@H]2O)C[C@@H]2O[C@](O)(C[C@@H](O)C[C@H]3O[C@@H]3/C=C/C(=O)O1)C[C@H](O)[C@H]2C(=O)O` [Pimaricin] reads 0.794.
